The campaign covered roughly 360,000 compounds. About 16,000 (4.4%) were called active. Inconclusive results, whose numbers are uncertain, are shown with a selection of clear calls. The call rests on the fitted dose curve; in most records, active means well fitted inhibition curve with a large enough effect; inconclusive means small, poorly fitted or top-dose-only effect; inactive means no such curve, though single readings can be large or run the other way. Where the call is inconclusive, the potency comes from a doubtful curve fit.
biological target: Bromodomain adjacent to zinc finger domain protein 2B (Homo sapiens) (UniProt Q9UIF8); assay: qHTS Assay for Inhibitors of BAZ2B; conditions: AlphaScreen BAZ2B-H3K14Ac peptide displacement; activity change, negative = inhibition: at 114 µM (top of the series) unless noted; further: nearly all actives have a fitted effect of over 60% in size
Method in brief: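 BAZ2B 50 nM plus b-H3(5-23)K14Ac 50 nM, PBS pH 7.4/0.01% Tween-20, 30 min RT; compound added (max 110 uM), 30 min RT; streptavidin donor/Ni-chelate acceptor beads 10 ug/mL final, 20 min dark; AlphaScreen read.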
On the % scale 0 is the no-effect control and ±100 the full control effect; potency means the concentration at half of the fitted maximal effect; tags describe the fitted curve by direction and shape.

UniProt Q9UIF8, sequence (Q9UIF8 whole entry, looked up, the tested form may be a part): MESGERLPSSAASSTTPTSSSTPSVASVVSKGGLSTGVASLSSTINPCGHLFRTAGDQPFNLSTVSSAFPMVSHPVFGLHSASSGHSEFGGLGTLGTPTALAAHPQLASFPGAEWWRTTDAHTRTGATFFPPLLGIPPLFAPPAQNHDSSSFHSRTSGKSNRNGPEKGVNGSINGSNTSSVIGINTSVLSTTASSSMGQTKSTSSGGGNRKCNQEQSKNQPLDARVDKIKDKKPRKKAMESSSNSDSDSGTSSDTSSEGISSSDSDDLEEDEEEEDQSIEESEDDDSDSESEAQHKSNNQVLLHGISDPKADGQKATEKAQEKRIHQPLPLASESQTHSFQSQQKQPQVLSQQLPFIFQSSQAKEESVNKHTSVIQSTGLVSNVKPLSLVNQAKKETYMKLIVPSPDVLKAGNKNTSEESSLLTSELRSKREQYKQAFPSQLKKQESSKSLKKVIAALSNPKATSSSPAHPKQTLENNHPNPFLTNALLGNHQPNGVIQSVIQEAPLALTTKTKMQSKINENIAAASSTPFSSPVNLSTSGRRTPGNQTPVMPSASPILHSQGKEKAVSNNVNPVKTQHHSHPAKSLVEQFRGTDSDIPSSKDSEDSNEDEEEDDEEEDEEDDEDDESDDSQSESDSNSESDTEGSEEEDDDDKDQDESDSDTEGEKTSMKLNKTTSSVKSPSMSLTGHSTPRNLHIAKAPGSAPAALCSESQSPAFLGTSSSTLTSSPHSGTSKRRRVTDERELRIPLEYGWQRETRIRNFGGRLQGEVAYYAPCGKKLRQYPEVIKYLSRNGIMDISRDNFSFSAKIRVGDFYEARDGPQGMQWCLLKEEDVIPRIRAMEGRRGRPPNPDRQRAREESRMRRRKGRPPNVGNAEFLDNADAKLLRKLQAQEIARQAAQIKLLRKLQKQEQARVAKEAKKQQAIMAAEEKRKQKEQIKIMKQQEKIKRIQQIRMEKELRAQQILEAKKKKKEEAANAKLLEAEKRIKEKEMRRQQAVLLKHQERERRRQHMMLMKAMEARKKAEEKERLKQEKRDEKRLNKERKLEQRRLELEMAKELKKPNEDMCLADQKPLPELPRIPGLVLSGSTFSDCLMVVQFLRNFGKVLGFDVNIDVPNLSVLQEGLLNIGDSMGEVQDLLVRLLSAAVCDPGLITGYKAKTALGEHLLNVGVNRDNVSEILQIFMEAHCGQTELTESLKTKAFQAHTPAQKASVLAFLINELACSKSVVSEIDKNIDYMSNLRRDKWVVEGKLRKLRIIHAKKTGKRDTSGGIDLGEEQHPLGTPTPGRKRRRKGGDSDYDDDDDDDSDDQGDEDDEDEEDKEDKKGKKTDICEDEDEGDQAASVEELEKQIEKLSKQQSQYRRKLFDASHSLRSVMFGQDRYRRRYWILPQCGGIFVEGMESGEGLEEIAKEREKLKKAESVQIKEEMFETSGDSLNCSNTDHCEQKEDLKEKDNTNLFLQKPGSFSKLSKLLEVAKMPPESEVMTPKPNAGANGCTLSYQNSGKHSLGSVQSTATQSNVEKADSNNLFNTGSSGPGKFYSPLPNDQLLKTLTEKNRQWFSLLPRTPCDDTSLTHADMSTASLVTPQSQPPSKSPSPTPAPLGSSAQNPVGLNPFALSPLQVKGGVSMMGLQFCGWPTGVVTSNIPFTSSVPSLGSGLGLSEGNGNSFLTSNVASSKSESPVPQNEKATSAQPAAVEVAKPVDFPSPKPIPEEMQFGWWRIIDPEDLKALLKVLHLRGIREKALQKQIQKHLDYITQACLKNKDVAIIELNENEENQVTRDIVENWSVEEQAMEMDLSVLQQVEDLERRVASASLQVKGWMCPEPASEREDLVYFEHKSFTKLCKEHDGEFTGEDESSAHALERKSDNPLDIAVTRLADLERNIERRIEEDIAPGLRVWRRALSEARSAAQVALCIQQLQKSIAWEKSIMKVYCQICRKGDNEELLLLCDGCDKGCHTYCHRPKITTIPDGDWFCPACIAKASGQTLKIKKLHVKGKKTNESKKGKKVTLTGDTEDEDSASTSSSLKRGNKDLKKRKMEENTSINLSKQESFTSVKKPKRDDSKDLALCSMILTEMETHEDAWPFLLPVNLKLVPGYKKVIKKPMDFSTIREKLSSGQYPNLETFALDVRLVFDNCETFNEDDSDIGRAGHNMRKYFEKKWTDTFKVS

Row | SMILES | Potency | activity change, negative = inhibition
1 | COc1ccc(N2CCN(C(=O)c3cc4c(-c5ccc(Cl)cc5)nn(C)c4s3)CC2)cc1 | active: 10 µM | –
2 | O=C1CSC(c2ccc3c(c2)OCO3)N1c1ccc(Oc2ccccc2)cc1 (centres undefined) | inconclusive: 89.1 µM [inhibitor, single point] | –
3 | CC(C)OC(=O)c1cc(NC(=O)C2C3C=CC(O3)C2C(=O)O)cc(C(=O)OC(C)C)c1 (centres undefined) | inconclusive: 79.4 µM [inhibitor, partial curve] | –
4 | Cc1ccc(-c2nnn(CC(=O)N(c3ccc(F)cc3)C(C(=O)NC3CCCC3)c3ccncc3)n2)o1 (centres undefined) | inactive | –
5 | O=C(CCc1ccc(S(=O)(=O)NC2CCCCC2)cc1)Nc1ccccc1 | inactive | –
6 | CCCn1nnnc1NCc1ccc(CC)cc1 | inconclusive: 89.1 µM [inhibitor, single point] | –
7 | O=C1CN(C(=O)CNCc2ccc(Cl)cc2)c2ccccc2N1 | active: 70.8 µM | –
8 | Cc1cc(C)cc(N(C(=O)c2sc(C)nc2C)C(C(=O)NCc2ccco2)c2ccccc2)c1 (centres undefined) | inconclusive: 89.1 µM [inhibitor, single point] | –
9 | CCN(Cc1ccncc1)Cc1ccc(OC)c(OC)c1 | inconclusive: 31.6 µM [inhibitor, single point] | –
10 | Cc1ccc(N2CCN(C(=O)c3cnn(-c4ccc(C)c(C)c4)c3C3CCNCC3)CC2)c(C)c1 | inconclusive: 35.5 µM [inhibitor, single point] | –
11 | CN(C)S(=O)(=O)N1CCN(c2ccc([N+](=O)[O-])c(N3CCCCC3)c2)CC1 | inconclusive: 12.6 µM [inhibitor, partial curve] | –
12 | O=C(Nc1ccc(S(=O)(=O)N2CCOCC2)cc1)c1ccco1 | inactive | –
13 | COc1cc(OC)c(C(=O)/C=C/c2ccc(OCc3ccccc3)c(OC)c2)c(OC)c1 | – | inconclusive: -44.1% [inhibitor]
14 | COc1ccc(/C=C2/NC(=O)CNC2=O)cc1 | inconclusive: 89.1 µM [inhibitor, single point] | –
15 | Cc1cnc(NC(=O)c2ccccn2)s1 | active: 35.5 µM | –
16 | COc1ccc(OC)c(NC(=O)CN2CCCN(Cc3ccccc3Cl)S2(=O)=O)c1 | inconclusive: 89.1 µM [inhibitor, single point] | –
17 | CCN(Cc1ccccc1)C(=O)Cn1ncc2c(=O)oc3ccc(C)cc3c21 | inactive | –
18 | COc1ccc(-c2nc(NC(=O)C3=NN(c4cccc(C)c4)C(=O)CC3)sc2C)cc1 | inconclusive: 79.4 µM [inhibitor, single point] | –
19 | COc1ccc(OCc2cc(C(=O)N(C)C3CCOCC3)no2)c2ccccc12 | inconclusive: 35.5 µM [inhibitor, partial curve] | –
20 | Cc1c(Cl)cccc1NC(=O)Cn1c(CCC(=O)O)ccc1-c1ccc(Cl)cc1 | active: 56.2 µM | –
21 | COc1ccc(C(=O)C2CCCN(C(=O)C3CCOCC3)C2)cc1OC (centres undefined) | inactive | –
22 | Cc1ccccc1NC(=O)C(=Cc1ccc(C(=O)O)cc1)C(=O)Nc1ccccc1C | inactive | –
23 | Cc1cccc(NCCC(=O)c2ccc(Br)cc2)c1 | inconclusive: 35.5 µM [inhibitor, full curve, poor fit] | –
24 | O=C(NCc1ccc(F)cc1)C1CCN(C(=O)Nc2ccc(F)cc2)CC1 | inconclusive: 89.1 µM [inhibitor, single point] | –
25 | COc1cc(/C=N/NC(=O)C(=O)NCc2ccco2)cc(Br)c1O | inconclusive: 79.4 µM [inhibitor, single point] | –

Row | SMILES | Potency | activity change, negative = inhibition
26 | CCCOC(=O)c1c(NC(=O)C2C3C=CC(C3)C2C(=O)O)sc2c1CCC(C)C2 (centres undefined) | inconclusive: 89.1 µM [inhibitor, single point] | –
27 | CC1CCc2c(sc3nc(CN4CCOCC4)nc(N4CCc5ccccc5C4)c23)C1 (centres undefined) | inconclusive: 39.8 µM [inhibitor, partial curve] | –
28 | CCOC(=O)c1c(C)[nH]c(C)c1S(=O)(=O)NCC(=O)NCc1ccccc1C | inactive | –
29 | CCOC(=O)c1ccccc1NC(=O)c1cccc([N+](=O)[O-])c1 | inconclusive: 89.1 µM [inhibitor, single point] | –
30 | COc1ccc(OCCn2nnc3sc4c(c3c2=O)CCCC4)cc1 | active: 50.1 µM | –
31 | COc1cc2c(cc1OC)/C(=C/C(=O)c1ccc(NC(C)=O)cc1)NCC2 | inconclusive: 50.1 µM [inhibitor, partial curve] | –
32 | CCOc1ccc(-n2nc(CO)c(C(=O)NCC(C)O)n2)cc1 (centres undefined) | inactive | –
33 | Cc1ccc2oc(C(=O)NC3CCS(=O)(=O)C3)c(C)c2c1 (centres undefined) | inconclusive: 89.1 µM [inhibitor, partial curve] | –
34 | COc1ccc(Nc2nc(NN)nc(Nc3ccc(OC)cc3)n2)cc1 | active: 25.1 µM | –
35 | COc1ccc(C(=O)NC(=S)NCc2ccccc2)cc1OC | inconclusive: 31.6 µM [inhibitor, partial curve, poor fit] | –
36 | Cc1ccc(-c2nc(CS(=O)CC(=O)NCCc3ccc(Cl)cc3)c(C)o2)cc1 (centres undefined) | inconclusive: 79.4 µM [inhibitor, single point] | –
37 | Cc1ccc(NC(=O)CN(C)CC(=O)Nc2ccccc2Oc2ccccc2)cc1 | active: 25.1 µM | –
38 | O=C(O)c1ccc2c(c1Nc1ccccc1)C(=O)c1ccccc1C2=O | inconclusive: 44.7 µM [inhibitor, partial curve] | –
39 | CC(C)CCN(C)c1ccc(/C=N/n2cnnc2)cc1 | inconclusive: 89.1 µM [inhibitor, single point] | –
40 | COCCNc1c(-c2ccc(OC)cc2)nc2ccc(Cl)cn12 | inconclusive: 89.1 µM [inhibitor, single point] | –
41 | COc1ccc(CN2CCSCC2)c(C)c1C | inconclusive: 89.1 µM [inhibitor, single point] | –
42 | O=C1C(=O)N(CCN2CCOCC2)C(c2cccc(Cl)c2)/C1=C(\O)c1ccc2c(c1)OCCO2 (centres undefined) | inconclusive: 89.1 µM [inhibitor, single point] | –
43 | COc1cc(CN(C(=O)c2ccc(Cl)cc2)C2CCS(=O)(=O)C2)cc(OC)c1OC (centres undefined) | inactive | –
44 | c1ccc(-c2csc(Nc3ccc4c(c3)OCCO4)n2)cc1 | active: 50.1 µM | –
45 | CCn1cc(S(=O)(=O)c2ccc(Cl)cc2)c(=O)c2cc(F)c(N3CCOCC3)cc21 | inactive | –
46 | Cc1cc(C)n2nc(C(=O)N/N=C/C=C/c3ccccc3)nc2n1 | inactive | –
47 | CCOC(=O)CC(NC(=O)c1ccc(C)cc1)c1ccc(OC)cc1 (centres undefined) | inactive | –
48 | CC(C)COCc1ccc(O)c2ncccc12 | active: 25.1 µM | –
49 | COc1cccc(NC(=O)CN(C)C(=O)c2ccc(-c3ccc(Cl)cc3)o2)c1 | inconclusive: 70.8 µM [inhibitor, single point] | –
50 | Cc1ccc(S(=O)(=O)C(CNC(=O)C(=O)NCc2ccc(Cl)cc2)c2ccco2)cc1 (centres undefined) | inactive | –

Row | SMILES | Potency | activity change, negative = inhibition
51 | Cc1ccc(Nc2ncnc3c2cnn3C)cc1 | inconclusive: 89.1 µM [inhibitor, single point] | –
52 | Fc1ccccc1-c1cc2ncccc2cn1 | active: 56.2 µM | –
53 | COc1ccc(C(CNC(=O)c2ccc(-c3ccccc3Cl)o2)N2CCOCC2)cc1 (centres undefined) | inconclusive: 31.6 µM [inhibitor, partial curve] | –
54 | Cc1nn(Cc2ccc(Cl)c(Cl)c2)c(C)c1NC(=O)c1cn(-c2ccccc2)nc1-c1ccccc1 | inactive | –
55 | Cc1cccc(CN2CCN(C(c3ccccc3)c3ccc(Cl)cc3)CC2)c1 (centres undefined) | active: 50.1 µM | –
56 | Cn1nc(C(=O)NCc2ccccc2)c2c1-c1ccccc1S(=O)(=O)C2 | inconclusive: 79.4 µM [inhibitor, single point] | –
57 | COc1ccc(C2=Nn3c(nnc3-c3ccccn3)SC2)cc1 | active: 25.1 µM | –
58 | Cc1ccc(NC(=O)CSc2nnc3ccc(-c4ccncc4)nn23)cc1 | inactive | –
59 | Cc1c(C)n(C)c2ccc(C(=O)NCCc3ccco3)cc12 | active: 35.5 µM | –
60 | COc1ccc(-n2c(SCC(=O)N3CCC(C(=O)O)CC3)nc3ccccc3c2=O)cc1OC | inactive | –
61 | O=C(Cn1c(O)c(/C=C2\C=Nc3ccc(Br)cc32)sc1=O)N1CCCC1 | inconclusive: 89.1 µM [inhibitor, single point] | –
62 | CS(=O)(=O)N1CCc2cc(C(=O)Nc3ccc(Br)cc3)ccc21 | inactive | –
63 | Cn1cnnc1SCC(=O)N1N=C(c2ccc(Cl)cc2)CC1c1ccco1 (centres undefined) | inconclusive: 56.2 µM [inhibitor, partial curve, poor fit] | –
64 | Cc1cc(C(=O)OCC(=O)NC(C)C)c2ccccc2n1 | inactive | –
65 | CCOc1ccc(/C=N/N(C)c2ccccc2)cc1OC | active: 31.6 µM | –
66 | CC(=O)N(/N=C1\Sc2ccccc2C1=O)c1cccc(C)c1 | active: 39.8 µM | –
67 | COc1cc(C(=O)N/N=C/c2ccc(OC(=O)c3ccccc3Cl)cc2)ccc1O | inconclusive: 79.4 µM [inhibitor, single point] | –
68 | CC1=Nc2ncnn2C(c2ccccc2)/C1=N\O (centres undefined) | inconclusive: 89.1 µM [inhibitor, single point] | –
69 | Cc1nc2ccc(S(=O)(=O)NC(C(=O)NCc3ccc4c(c3)OCO4)C(C)C)cc2s1 (centres undefined) | inactive | –
70 | N#C/C(=C\c1cc(Br)c(O)c(Br)c1)c1nc2ccccc2c(=O)[nH]1 | inconclusive: 63.1 µM [inhibitor, partial curve, poor fit] | –
71 | COCc1cc(C)nc(OCC(=O)N/N=C/c2ccccc2O)c1C#N | active: 79.4 µM | –
72 | O=S(=O)(Nc1ccc2c(c1)OCCO2)c1cccc2nsnc12 | inconclusive: 3.98 µM [inhibitor, full curve] | –
73 | O=C(N/N=C/c1cc(Br)ccc1O)c1ccncc1 | active: 20 µM | –
74 | CC1CNCCN1S(=O)(=O)c1cccc2cnccc12 (centres undefined) | inconclusive: 89.1 µM [inhibitor, single point] | –
